Experimental data published in PubChem BioAssay AID938 (National Center for Advancing Translational Sciences (NCATS), 2007).
About 1,800 (2.5%) of roughly 73,000 compounds were called active. This list was built around the results that the source calls inconclusive (neither active nor inactive); the mix of calls is not that of the screen. Calls follow the shape of the dose curve; as a rule, active = well fitted activation curve with a large enough effect; inconclusive = small, poorly fitted or top-dose-only effect; inactive = no such curve, though single readings can be large or run the other way. No potency is given beside an inconclusive call; the fits are too rough.

Assay: qHTS Assay for Agonists of the Thyroid Stimulating Hormone Receptor: Activators of Intracellular cAMP Concentrations in Parental HEK 293; also: nearly all actives have a fitted effect of over 55% in size; as to activation: % of control where 0% means no effect
Settings: parental HEK293 CNG cAMP sensor, membrane potential fluorescence; activation: at 57.1 µM (top of the series) unless noted
Outline: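 Parental HEK 293 cells stably expressing a modified CNG channel (no TSHR) report cAMP rise as membrane depolarization. Membrane potential dye with 100 uM RO 20-1724 was loaded for 60 min at room temperature, then compound added for 30 min; fluorescence read at 590 nm.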
Potency is read from the fitted curve at half-maximal effect; tags tell the direction and shape of the fitted curve.

Row | SMILES | activation | Potency
1 | CCN1CCC2(CC1)C(C#N)=C(N)Oc1c2sc2nc(C)cc(C)c12 | inactive: 16.3% | 
2 | Cn1c(=O)[nH]c(=O)c2c1nc(CN1CCN(c3cccc(Cl)c3)CC1)n2CCCc1ccccc1 | inactive: 8.39% | 
3 | Cc1onc(-c2ccccc2)c1C(=O)N1CCCSC1=Nc1ccccc1 |  | inconclusive [activator, full curve, poor fit]
4 | Cn1c(=O)c(CCc2ccccc2)nc2cnc(OCc3ccccc3)nc21 |  | active: 1 µM
5 | O=C(NCc1ccccc1Cl)C1CCN(C(=O)c2sccc2-n2cccc2)CC1 |  | inconclusive [activator, partial curve]
6 | CCCOc1ccc(-c2cnc(SCC(N)=O)nc2N)cc1 |  | inconclusive [activator, single point]
7 | COc1ccc(-c2noc(C3CCCN(C(=O)c4ccccc4OC)C3)n2)cc1OC (stereo not given) |  | inconclusive [activator, single point]
8 | COc1ccc(CCNC(=O)C2CCN(S(=O)(=O)N3CC(C)CC(C)C3)CC2)cc1OC (stereo not given) |  | inconclusive [activator, single point]
9 | COc1ccc2[nH]c3nc(SCc4nnc(-c5ccc(C)cc5)o4)nnc3c2c1 | inactive: 8.99% | 
10 | c1ccc2c(c1)CCN(c1ncnc3nc[nH]c13)C2 |  | inconclusive [activator, partial curve]
11 | COc1ccc(COC(=O)N/N=C2/C[C@@H](O)[C@@H](O)[C@@H]3[C@@H]4C(=O)N(Cc5ccccc5)C(=O)[C@H]4CC[C@H]23)cc1 |  | inconclusive [activator, partial curve]
12 | CCOc1nc(OCC)nc(N2CCC(C)CC2)n1 |  | inconclusive [activator, full curve, poor fit]
13 | CCOc1ccc(C(=O)Nc2cc(C)on2)cc1 | inactive: 8.45% | 
14 | CCOC(=O)c1cnc(-n2cc(C)cn2)nc1Nc1ccccc1OCC |  | inconclusive [activator, single point]
15 | CCOc1cc(/C=N/NC(=O)c2cc(-c3cccc(OC)c3)n[nH]2)ccc1O | inactive: -9.93% | 
16 | O=C(c1cnccn1)N1CCC2(CC1)CN(c1ccncc1)C2 | inactive: 14.4% | 
17 | CCOc1ccc2nc(SCC(=O)N3CCCCCC3)c(C#N)cc2c1 |  | active: 15.8 µM
18 | COCCn1c(=O)c(C)nc2cnc(Oc3ccc(OC)cc3)nc21 |  | active: 31.6 µM
19 | Cc1ccc2[nH]c(=O)c(C(c3nnnn3C(C)(C)C)N(Cc3ccco3)CC3CCCO3)cc2c1 (stereo not given) |  | inconclusive [activator, partial curve]
20 | Cc1nn(Cc2ccccc2)c(N)c1C#N |  | inconclusive [activator, partial curve, poor fit]
